Converted amounts (≈) assume the structure as drawn. Ends that are not written are not given here.
Key:
[1] = test system: influenza A/Puerto Rico/8/34 (H1N1); conditions: /Puerto Rico/8/34, 48 h
[2] = test system: influenza A/Puerto Rico/8/34 (H1N1); assay: Quantitative real-time PCR of viral HA gene; assay type: cell-based, influenza A virus
[3] = test system: influenza A/Puerto Rico/8/34 (H1N1); assay type: cell-based, influenza A virus
[4] = test system: influenza A/Puerto Rico/8/34 (H1N1); assay: Enzyme-linked immunosorbent assay of viral nucleoprotein (NP); assay type: cell-based, influenza A virus
[5] = test system: influenza virus A/Puerto Rico/8/34 (H1N1); assay: Hemolysis inhibition assay at low pH; conditions: pH 5
[6] = test system: WT of influenza strain of A/Puerto Rico/8/34 (H1N1); assay: microbe, parasite or virus in culture; assay type: cell-based; conditions: H1N1, MDCK, read-out: IC50 against WT A/Puerto Rico/8/34 (H1N1)
[7] = test system: influenza A/Puerto Rico/8/34 (H1N1); assay: microbe, parasite or virus in culture; conditions: H1N1, MDCK, read-out: H1N1 IC50

Compound: GLFGAIAGFIKKGWPGLVKG-NH2 [HA-FP-3-1]
- H1N1 IC50 [1]: 10.37 ± 0.05 µg/mL

Compound: GLFGAIAGFIKNGWKGMIKG-NH2 [HA-FP-1]
- mRNA level of viral HA gene [2]: reduced level of mRNA expression
- virus inhibitory effect, virus titer reduction assay [3]: dose-dependent manner
- virus inhibitory effect, ELISA [4]: dose-dependent manner
- H1N1 IC50 [1]: 9.61 ± 1.15 µg/mL
- hemolysis of cRBCs induced by virus at low pH [5]: apparently inhibited in a dose-dependent manner

Compound: GLFGAIAGFIKGGWPGLVKG-NH2 [HA-FP-3]
- H1N1 IC50 [1]: 15.17 ± 3.69 µg/mL

Compound: CCOC(=O)C1=C[C@@H](OC(CC)CC)[C@H](NC(C)=O)[C@@H](N)C1 [Oseltamivir, reference compound]
- IC50 [6]: 0.017 ± 0.002 µg/mL (≈ 0.0544 µM)

Compound: NC(=O)c1ncn([C@@H]2O[C@H](CO)[C@@H](O)[C@H]2O)n1 [Ribavirin]
- IC50 [7]: 3.22 µg/mL (≈ 13.2 µM)
